Data taken from US10294228B2, “Breathing control modulating compounds, and methods of making and using same” (NEURAD LTD., priority 2015, dated 2019).
Where a name gives a salt, the structure may show the parent alone. At least one read-out could not be matched to a standard name with certainty.

System: anesthetized rats
Assay: Anesthetized rat spirometry screening assay (ventilatory activity, minute volume)
Type: in vivo
Details: ratio compared to N-(2,6-Bis-propylamino-pyrimidin-4-yl)-O,N-dimethyl-hydroxylamine hydrogen sulfate; for Peak ratio @ 0.3 dose*: 0.3 mg/kg IV; for Peak ratio @ 3.0 dose *: 3.0 mg/kg IV
Procedure: Anesthetized rats provide a quick method of screening compounds for respiratory and cardiovascular activity.
Rats were initially anesthetized with 3% isoflurane (inhaled) and femoral artery and vein cannulas were surgically inserted. Once cannulated, the rats were transitioned to urethane anesthesia (1.5 g/kg; i.v.) and a tracheal cut-down was performed. After placing the tracheal cannula, it was connected to a pneumotachometer to record respiratory airflow from which respiratory rate (RR), tidal volume (VT), and their product minute volume (MV, also termed VE) were derived. After the surgical preparation was complete, animals were allowed to stabilize for 30 minutes while respiratory rate, tidal volume, minute volume, blood pressure and heart rate were recorded continuously. Arterial blood gases (ABG) were obtained from arterial blood collected from the femoral artery. ABG measurements were taken before and 6 minutes after vehicle and each dose of compound administered. Compounds being screened were administered via bolus injections through the venous cannula followed by a saline flush (total time of administration is approximately 30 seconds), and the animal was monitored for at least 6 minutes for changes in cardiovascular efforts. Compounds were prepared in formulations identified to ensure optimal solubility. As such, vehicle controls were matched for the formulation of each compound tested. Dosing of the compounds being screened was conducted at 0.1 and/or 0.3 mg/kg and/or 3 mg/kg The next dose was not administered until all cardiovascular and respiratory measures had returned to baseline levels. The positive control compounds used were N-[4,6-di-(n-propylamino)-[1,3,5]triazin-2-yl]-N,O-dimethyl-hydroxylamine or N-[2,6-di-(n-propylamino)-[1,3]pyrimidin-4-yl]-N,O-dimethyl-hydroxylamine (both administered at the end of each screening experiment (0.3 mg/kg dose) to validate the experiment and also to serve as a measure with which the compound being screened could be compared.
Data were analyzed by collecting cardiovascular and respiratory data in 30 second averages (BINs). Data were plotted 2 minutes before challenge and then 6 minutes after challenge.

| SMILES | Peak ratio @ 0.3 dose* | Peak ratio @ 3.0 dose * |
| --- | --- | --- |
| C=CCNc1nc(NC)c2nc(NCCO)nc(NC)c2n1 [Compound 154, 2-(6-Allylamino-4,8-bis-methylamino-pyrimido[5,4-d]pyrimidin-2-ylamino)-ethanol] | 0.35 | 0.90 |
| CCNc1nc(NC[C@H](C)O)nc2c(NCC)nc(N)nc12 [Compound 172, (S)-1-(6-Amino-4,8-bis-ethylamino-pyrimido[5,4-d]-pyrimidin-2-ylamino)-propan-2-ol] | 0.03 | 0.90 |
| CCCNc1nc(NC)nc2c(N[C@H]3CCCC[C@H]3O)nc(NC)nc12 [Compound 82, (1R,2S)-2-(2,6-Bis-methylamino-8-propylamino-pyrimido[5,4-d]pyrimidin-4-ylamino)-cyclohexanol] | 0.70 | 0.90 |
| CCCNc1nc(NCC(F)(F)F)nc2c(NCCO)nc(NCC(F)(F)F)nc12 [Compound 28a, 2-[8-propylamino-2,6-bis-(2,2,2-trifluoroethylamino)-pyrimido[5,4-d]pyrimidin-4-ylamino]ethanol hydrochloride] | 0.12 |  |
| CCCNc1nc(NC)nc2c(N[C@@H](C)CO)nc(NC)nc12 [Compound 18a, (S)-2-(2,6-Bis-methylamino-8-propylamino-pyrimido[5,4-d]-pyrimidin-4-ylamino)-propan-1-ol Hydrochloride] | 0.38 |  |
| CCCNc1nc(NC)nc2c(NC(C)(C)CO)nc(NC)nc12 [Compound 16a, 2-(2,6-Bis-methylamino-8-propylamino-pyrimido[5,4-d]-pyrimidin-4-ylamino)-2-methyl-propan-1-ol hydrochloride] | 0.53 |  |
| CNc1nc(NCC(F)(F)F)c2nc(NC)nc(NCCO)c2n1 [Compound 62a, 2-[2,6-Bis-methylamino-8-(2,2,2-trifluoro-ethylamino)-pyrimido[5,4-d]pyrimidin-4-ylamino]-ethanol Hydrochloride] | 0.25 |  |
| CCCNc1nc(NC)c2nc(N[C@H]3CCC[C@@H]3O)nc(NC)c2n1 [Compound 139, (1S,2S)-2-(4,8-Bis-methylamino-6-propylamino-pyrimido[5,4-d]pyrimidin-2-ylamino)-cyclopentanol] | 0.41 | 0.51 |
| C#CCNc1nc(NC)nc2c(NCCO)nc(NC)nc12 [Compound 58a, 2-(2,6-Bis-methylamino-8-prop-2-ynylamino-pyrimido[5,4-d]pyrimidin-4-ylamino)-ethanol Hydrochloride] | 0.08 |  |
| CCCNc1nc(NCC)c2nc(NC[C@H](C)O)nc(NCC)c2n1 [Compound 166, (S)-1-(4,8-Bis-ethylamino-6-propylamino-pyrimido[5,4-d]-pyrimidin-2-ylamino)-propan-2-ol] | 0.84 | 0.87 |
| CC[C@H](C)Nc1nc(NC)c2nc(NC[C@H](C)O)nc(NC)c2n1 [Compound 105, (S)-1-[6-((S)-sec-Butylamino)-4,8-bis-methylamino-pyrimido[5,4-d]pyrimidin-2-ylamino]-propan-2-ol] | 0.07 | 0.63 |
| CCCNc1nc(NC)c2nc(NC(C)C(C)O)nc(NC)c2n1 (centres unmarked) [Compound 119, 3-(4,8-Bis-methylamino-6-propylamino-pyrimido[5,4-d]pyrimidin-2-ylamino)-butan-2-ol] | 0.05 | 0.82 |
| CCCNc1nc(NC)nc2c(NCCO)nc(NC)nc12 [Compound 4a, 2-(2,6-Bis-methylamino-8-propylamino-pyrimido[5,4-d]pyrimidin-4-ylamino)-ethanol hydrochloride] | 0.55 |  |
| CC[C@@H](C)Nc1nc(NC)c2nc(NCC(C)(C)O)nc(NC)c2n1 [Compound 99, 1-[6-((R)-sec-Butylamino)-4,8-bis-methylamino-pyrimido[5,4-d]-pyrimidin-2-ylamino]-2-methyl-propan-2-ol] | 0.13 | 0.32 |
| CC[C@H](C)Nc1nc(NC)c2nc(NC[C@@H](C)O)nc(NC)c2n1 [Compound 104, (R)-1-[6-((S)-sec-Butylamino)-4,8-bis-methylamino-pyrimido[5,4-d]pyrimidin-2-ylamino]-propan-2-ol] | 0.17 | 0.50 |
| CCCNc1nc(NC)c2nc(N(C)CC(C)(C)O)nc(NC)c2n1 [Compound 96, 1-[(4,8-Bis-methylamino-6-propylamino-pyrimido[5,4-d]pyrimidin-2-yl)-methyl-amino]-2-methyl-propan-2-ol] | 0.43 | 0.58 |
| CCCNc1nc(NC)nc2c(N3CCC(O)C3)nc(NC)nc12 (centres unmarked) [Compound 71a, 1-(2,6-Bis-methylamino-8-propylamino-pyrimido[5,4-d]pyrimidin-4-yl)-pyrrolidin-3-ol Hydrochloride] | 0.16 | 0.78 |
| CCCNc1nc(NC)nc2c(N(C)CCO)nc(NC)nc12 [Compound 6a, 2-[(2,6-Bis-methylamino-8-propylamino-pyrimido[5,4-d]pyrimidin-4-yl)-methyl-amino]-ethanol hydrochloride] | 0.29 |  |
| CCCNc1nc(NCC)nc2c(NCCO)nc(NCC)nc12 [Compound 27a, 2-(2,6-Bis-ethylamino-8-propylamino-pyrimido[5,4-d]pyrimidin-4-ylamino)-ethanol Hydrochloride] | 0.87 |  |
| CNc1nc(NC[C@@H](C)O)nc2c(NC)nc(N)nc12 [Compound 151, (R)-1-(6-Amino-4,8-bis-methylamino-pyrimido[5,4-d]-pyrimidin-2-ylamino)-propan-2-ol] | 0.00 | 0.44 |
| CNc1nc(NCC(C)(C)O)c2nc(NC)nc(NCc3ccccc3)c2n1 [Compound 44a, 1-(8-Benzylamino-2,6-bis-methylamino-pyrimido[5,4-d]pyrimidin-4-ylamino)-2-methyl-propan-2-ol Hydrochloride] | 0.95 | 1.02 |
| C=C(C)CNc1nc(NC)c2nc(NC[C@H](C)O)nc(NC)c2n1 [Compound 159, (S)-1-[6-(2-Methyl-allylamino)-4,8-bis-methylamino-pyrimido[5,4-d]-pyrimidin-2-ylamino]-propan-2-ol] | 0.36 | 0.95 |
| CNc1nc(NCC2CC2)c2nc(NC)nc(NCCO)c2n1 [Compound 54a, 2-[8-(Cyclopropylmethyl-amino)-2,6-bis-methylamino-pyrimido[5,4-d]pyrimidin-4-ylamino]-ethanol Hydrochloride] | 0.96 |  |
| CNc1nc(NCC(C)(C)O)c2nc(NC)nc(NCC3CC3)c2n1 [Compound 46a, 1-[8-(Cyclopropylmethyl-amino)-2,6-bis-methylamino-pyrimido[5,4-d]pyrimidin-4-ylamino]-2-methyl-propan-2-ol Hydrochloride] | 0.34 | 0.88 |
| CCNc1nc(NCC(C)(C)O)c2nc(NCC)nc(NCC(F)F)c2n1 [Compound 47a, 1-[8-(2,2-difluoro-ethylamino)-2,6-bis-ethylamino-pyrimido[5,4-d]pyrimidin-4-ylamino]-2-methyl-propan-2-ol hydrochloride] | 0.25 |  |
| CCCNc1nc(NC)nc2c(N[C@H]3CCCC[C@@H]3O)nc(NC)nc12 [Compound 83, (1S,2S)-2-(2,6-Bis-methylamino-8-propylamino-pyrimido[5,4-d]pyrimidin-4-ylamino)-cyclohexanol] | 0.86 | 0.75 |
| CCCNc1nc(NC)nc2c(NC(C)C(C)O)nc(NC)nc12 (centres unmarked) [Compound 26a, 3-(2,6-Bis-methylamino-8-propylamino-pyrimido[5,4-d]pyrimidin-4-ylamino)-butan-2-ol Hydrochloride] | 0.26 | 0.95 |
| CCCNc1nc(NC)c2nc(N[C@@H]3c4ccccc4C[C@H]3O)nc(NC)c2n1 [Compound 129, (1R,2R)-1-(4,8-Bis-methylamino-6-propylamino-pyrimido[5,4-d]-pyrimidin-2-ylamino)-indan-2-ol] | 0.01 | 0.48 |
| CCCNc1nc(NC)c2nc(NCC(O)CO)nc(NC)c2n1 (centres unmarked) [Compound 121, 3-(4,8-Bis-methylamino-6-propylamino-pyrimido[5,4-d]pyrimidin-2-ylamino)-propane-1,2-diol] | 0.00 | 0.20 |
| CCCNc1nc(NC)c2nc(N[C@@H]3CCCC[C@H]3O)nc(NC)c2n1 [Compound 137, (1R,2R)-2-(4,8-Bis-methylamino-6-propylamino-pyrimido[5,4-d]pyrimidin-2-ylamino)-cyclohexanol] | 0.10 | 0.48 |
